According to publication PMC12040169 (PLOS Biology, 2025):
The other results are listed elsewhere or left out.

These molecules were tested on T1, C. trachomatis L2/434/Bu expressing GFP (CTL2-GFP). Settings: total inclusion area; 28.5 h, 10 µM; inhibitor.
T1 construct: L2/434/Bu GFP intracellular growth in HeLa cells
Parameters: species or system HeLa; C. trachomatis total inclusion area by high-content imaging, normalised to DMSO
In short: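 After bulk GFP and resorufin fluorescence reads, cells were fixed, stained with Hoechst and imaged by high-content microscopy. Inclusion area and number (GFP) stood in for chlamydial growth, nuclei count (Hoechst) for host cell viability. MICs were derived as for the bulk readout.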
`CN(C)CCN(C)c1nc(-c2ccc(F)c(Cl)c2)cn2ccnc12` [CBK038007] was tested, and the “% of control remaining” value was 68.7403.
`COc1ccc2[nH]cc(CC(=O)N3CCCC4(CCN(Cc5ccccc5)C4)C3)c2c1` (stereo not drawn) [CBK136883] was tested, and the “% of control remaining” value was 90.4896.
For `O=C(O)CCC(=O)Nc1ccc(Oc2ccccc2)cc1` [CBK286957], the “% of control remaining” value was 63.1168.
With `Cc1ccc(Nc2nc3c(c(=O)[nH]2)CCCC3)cc1` [CBK287895] the “% of control remaining” value was 77.0601.
With `CC(C)CCNC(=O)N1CCN(c2ccccc2)CC1` [CBK155203] the “% of control remaining” value was 110.854.
With `COc1cc(C(O)c2cc3c(cc2CO)OCO3)cc(OC)c1OC` (stereo not drawn) [CBK200098] the “% of control remaining” value was 105.718.
`CSCCC(C(=O)O)N1C(=O)c2ccc(C(=O)O)cc2C1=O` (stereo not drawn) [CBK265135] was tested, and the “% of control remaining” value was 115.114.
With `CNC(=O)c1ccc(NS(=O)(=O)c2ccc(OC(F)(F)F)cc2)cc1` [CBK043495] the “% of control remaining” value was 79.3542.
For `N#Cc1c2ccccc2cn1Cc1cccc(Cl)c1` [CBK019531], the “% of control remaining” value was 61.5057.
`COc1cc2c(cc1OC)C1c3ccccc3NC(=O)N1CC2` (stereo not drawn) [CBK284471] was tested, and the “% of control remaining” value was 59.9272.
`CC1(C)CC(=O)c2cc(C(N)=O)c(=O)n(-c3ccc(Cl)cc3)c2C1` [CBK293936] was tested, and the “% of control remaining” value was 82.5427.
With `COc1cc(C(C)=O)ccc1OCCCN1CCC(O)(C(=O)c2ccc(Cl)c(Cl)c2)CC1` [CBK024875C] the “% of control remaining” value was 104.5.
`O=C(NCc1ccccc1OC1CCNC1)c1ccccc1` (stereo not drawn) [CBK028301T] was tested, and the “% of control remaining” value was 98.7546.
In the case of `O=C1CC(N2CCC(c3nc4ccccc4s3)CC2)C(=O)N1Cc1ccccc1` (stereo not drawn) [CBK267438], the “% of control remaining” value is reported as 101.334.
For `COc1ccc(C(=O)N(CCC#N)Cc2ccco2)cc1` [CBK304862], the “% of control remaining” value was 85.8991.
`Cc1cccc(-c2ncc(NC(=O)Cc3cccc(Oc4ccccc4)c3)nc2-c2ccc(N)cc2)c1` [CBK037583] was tested, and the “% of control remaining” value was 131.738.
In the case of `CNS(=O)(=O)c1ccc(CCC(=O)N(C)Cc2cnn(C)c2)cc1` [CBK305712], the “% of control remaining” value is reported as 54.9148.
`Cc1ccc(O)c(Nc2ncnc3ccccc23)c1` [CBK266020C] was tested, and the “% of control remaining” value was 100.691.
For `Cc1nc(S)[nH]c(=O)c1Cc1ccc(F)cc1` [CBK288456], the “% of control remaining” value was 85.6421.
With `COc1cccc2cc(C(=O)Nc3cccc(C)n3)oc12` [CBK287659] the “% of control remaining” value was 98.1869.
`Cc1cc(C)nc(NC(=O)OCCc2ccncc2)c1` [CBK138233] was tested, and the “% of control remaining” value was 105.649.
With `CCOc1ccc(C(C)(CC(=O)O)C(=O)O)cc1` (stereo not drawn) [CBK261361] the “% of control remaining” value was 73.5926.
With `CC(CCN(CCN)C(=O)N1CCC(Cn2cncn2)(C2CCCCC2)CC1)c1ccccc1` (stereo not drawn) [CBK002130C] the “% of control remaining” value was 81.6791.
`O=C(COc1ccccc1)Nc1ccccc1N1CCNCC1` [CBK028279T] was tested, and the “% of control remaining” value was 89.146.
`Nc1cc2cccnc2c(-c2ccc(OC(F)(F)F)cc2)n1` [CBK061926] was tested, and the “% of control remaining” value was 82.5079.
`CN1CCN(C(=O)CNC(=O)CNS(=O)(=O)c2ccccc2)CC1` [CBK268651] was tested, and the “% of control remaining” value was 115.066.
With `CC(C)(C)OC(=O)N1CCC(C2OCc3cc(C(=O)N4CCNC(=O)C4)ccc3O2)CC1` (stereo not drawn) [CBK173277] the “% of control remaining” value was 77.0115.
For `Fc1ccc(Oc2nccnc2N2CCN(CCOc3cccnc3)CC2)cc1` [CBK083037T], the “% of control remaining” value was 107.013.
In the case of `COc1ccc(-c2cc(C(=O)Nc3ccc(S(N)(=O)=O)cc3)c3ccccc3n2)cc1OC` [CBK263635], the “% of control remaining” value is reported as 96.4484.
In the case of `Cc1cc(NC(=O)Cc2ccccc2)nc2c1c(=O)oc1ccccc12` [CBK291127], the “% of control remaining” value is reported as 120.374.
For `O=C(C1=C(O)C(=O)N(Cc2ccncc2)C1c1cccc(OCc2ccccc2)c1)c1cccs1` (stereo not drawn) [CBK266247], the “% of control remaining” value was 124.488.
With `CCC(c1ccccc1)N1CCN(Cc2noc(C)n2)CC1` (stereo not drawn) [CBK305084] the “% of control remaining” value was 54.5488.
In the case of `COc1ccc(CN2CCC(Cc3ccccc3-c3cccc(F)c3)(C(N)=O)CC2)cc1` [CBK286277], the “% of control remaining” value is reported as 83.9289.
For `Cc1nn(CC(C)C(=O)NCCN2CCC(C)CC2)c(C)c1Cl` (stereo not drawn) [CBK281570], the “% of control remaining” value was 104.424.
In the case of `Cc1ccnc2nc(C(=O)OCC(=O)Nc3ccc4c(c3)CCC4)nn12` [CBK305853], the “% of control remaining” value is reported as 86.2061.
In the case of `CC1(C)CC(=O)C2=C(C1)NC(Nc1nc3ccccc3s1)=NC2c1cccnc1` (stereo not drawn) [CBK270025], the “% of control remaining” value is reported as 81.0007.
In the case of `Cc1cccnc1NC(=O)COc1ccc(Cl)cc1Cl` [CBK262154], the “% of control remaining” value is reported as 58.1014.
In the case of `CCn1c(N2CCC(C(=O)NCC3CC3)CC2)nc2ccccc21` [CBK283983], the “% of control remaining” value is reported as 59.9031.
In the case of `COc1ccc(C)cc1C1(CNC(=O)C2CCC(=O)N2)CCOCC1` (stereo not drawn) [CBK304967], the “% of control remaining” value is reported as 75.0184.
`COc1ccccc1CNCc1ccccc1OC` [CBK262168] was tested, and the “% of control remaining” value was 93.6464.
With `CC(C)c1ccccc1OCC(=O)N1CCCc2c(cnn2C)C1` [CBK285287] the “% of control remaining” value was 86.8063.
In the case of `COc1ccccc1N1CCN(C2CCN(S(=O)(=O)c3ccc(NC(C)=O)cc3)CC2)CC1` [CBK264688], the “% of control remaining” value is reported as 104.545.
In the case of `Cc1ccc(C(=O)N/C(=C\c2ccccc2F)c2n[nH]c(=S)[nH]2)cc1` [CBK263136], the “% of control remaining” value is reported as 87.7137.
`N#CC1(NC(=O)CN2CCOC(Cn3cccn3)C2)CCCCC1` (stereo not drawn) [CBK305268] was tested, and the “% of control remaining” value was 82.6402.
For `CCCN(C(=O)C1CC1)c1nc2c(s1)CCc1c-2cnn1C` [CBK281930], the “% of control remaining” value was 65.188.
With `CS(=O)(=O)c1ccc(CN2CCC3(CCN(Cc4ccccc4)CC3)C2)cc1` [CBK144066T] the “% of control remaining” value was 73.4375.
`CN(Cc1cnn(C)c1)C(=O)C1CCCN1Cc1ccccn1` (stereo not drawn) [CBK305092] was tested, and the “% of control remaining” value was 71.5261.
With `C=C[C@H]1C[N@@]2CC[C@H]1C[C@@H]2CNS(=O)(=O)c1cccc(C#N)c1` [CBK288750] the “% of control remaining” value was 107.47.
In the case of `O=C(NCc1ccccc1OC1CCNC1)c1cnccn1` (stereo not drawn) [CBK029462T], the “% of control remaining” value is reported as 105.568.
In the case of `COc1ccc(OC(=O)N2CCC(n3c(=O)[nH]c4ccccc43)CC2)cc1` [CBK149868], the “% of control remaining” value is reported as 114.116.
With `Nc1ccc2cc(-c3cccc(OCc4ccccc4)c3)cnc2n1` [CBK081172] the “% of control remaining” value was 95.256.
`COc1cc(CNCc2ccccn2)ccc1OCc1cccc(Cl)c1` [CBK269877C] was tested, and the “% of control remaining” value was 98.3589.
For `Cc1c(C)n(CC(O)CN2C(=O)c3ccccc3S2(=O)=O)c2ccccc12` (stereo not drawn) [CBK263960], the “% of control remaining” value was 127.511.
For `CCCC/C=C/c1cnc(N)c(N2CCOCC2)n1` [CBK063398], the “% of control remaining” value was 133.143.
For `Nc1nn2c(c1Cc1c(Cl)cccc1Cl)OCC2` [CBK088759], the “% of control remaining” value was 69.4165.
`CN1CCC(NC2(Cc3cc(-c4ccccn4)on3)COC2)CC1` [CBK289249] was tested, and the “% of control remaining” value was 119.403.
`O=C(Nc1ccc(Cl)cc1)NC(C(=O)O)c1ccccc1` (stereo not drawn) [CBK267405] was tested, and the “% of control remaining” value was 71.9943.
For `CCOC(=O)Cc1csc(NS(=O)(=O)c2cn(C)cn2)n1` [CBK000888], the “% of control remaining” value was 115.682.
In the case of `CCc1cccc(CC)c1NC(=O)CN(c1cccc(Cl)c1Cl)S(C)(=O)=O` [CBK265934], the “% of control remaining” value is reported as 106.306.
With `C[C@@H]1CN(C(=O)c2cc3ccccc3n2C)C[C@H](C)O1` [CBK200234] the “% of control remaining” value was 106.599.
`N=c1sc(Cc2cc(Cl)ccc2Cl)cn1CC(=O)c1ccccc1` [CBK263584B] was tested, and the “% of control remaining” value was 97.8723.
`Nc1cccc(-c2cncc(Nc3ccccc3)n2)c1` [CBK065265] was tested, and the “% of control remaining” value was 147.498.
With `COc1ccccc1Oc1ccc(C(F)(F)F)cc1[N+](=O)[O-]` [CBK002845] the “% of control remaining” value was 85.6341.
With `CCC(CC)Cn1c(-c2cccnc2)nc2cc(S(=O)(=O)NCCO)ccc21` [CBK003450] the “% of control remaining” value was 101.697.
For `COc1ccccc1Nc1nc(N)nc(CSc2nc3ccccc3s2)n1` [CBK266747], the “% of control remaining” value was 105.769.
`O=C(c1ccco1)N1CCN(S(=O)(=O)c2ccc(Cl)cc2)CC1` [CBK068411] was tested, and the “% of control remaining” value was 98.9406.
For `O=C(Nc1ccc(-c2ccoc2)cc1C(=O)O)OCc1ccc([N+](=O)[O-])cc1` [CBK000141D], the “% of control remaining” value was 92.3873.
For `CC(=O)N(C)c1ncc(Br)cc1C(=O)N(C)C` [CBK076533], the “% of control remaining” value was 117.592.
With `Cc1nccn1CCC(=O)NCCc1ccc(N(C)C)cc1` [CBK281954] the “% of control remaining” value was 107.345.
With `COCCn1ccnc1C1CCN(C(=O)COc2cccc(F)c2)CC1` [CBK307362] the “% of control remaining” value was 79.2884.
For `O=C(O)c1ccc(-c2n[nH]c(=O)c3c2CCCC3)cc1` [CBK287868], the “% of control remaining” value was 106.08.
For `Cc1nnc2n1-c1ccccc1SC(c1ccccc1)C2` (stereo not drawn) [CBK016040], the “% of control remaining” value was 105.127.
With `CC(C)(C)c1cc(CN2CCN(c3ccccn3)CC2)cc(C(C)(C)C)c1O` [CBK261520] the “% of control remaining” value was 77.17.
In the case of `CCN1C(=O)/C(=C\NN=C2CCCC2)c2ccc(C3=NNC(=O)CC3)cc21` [CBK263515], the “% of control remaining” value is reported as 118.767.
With `CCCS(=O)(=O)NC1CC(C)(C)Cc2c1cnn2-c1ccc(OC)cc1` (stereo not drawn) [CBK306730] the “% of control remaining” value was 95.9097.
`COc1ccc(-c2nc(=S)c3c(n2CCCO)CCCC3)cc1` [CBK027898] was tested, and the “% of control remaining” value was 127.525.
`Cc1ccc(S(=O)(=O)N2CCN(CCC(=O)O)CC2)cc1C` [CBK269416] was tested, and the “% of control remaining” value was 86.1355.
In the case of `O=C(c1ccoc1)N1CCC2(CCCN(Cc3c(F)cccc3F)C2)C1` (stereo not drawn) [CBK132806], the “% of control remaining” value is reported as 75.0983.
In the case of `Cc1cc(N2CCN(C(=O)CCc3ccco3)CC2)nc(C(C)C)n1` [CBK305367], the “% of control remaining” value is reported as 113.96.
For `CC(NC(=O)n1ccc2c(N3CCNCC3)cccc21)c1ccccc1` (stereo not drawn) [CBK003729C], the “% of control remaining” value was 84.1676.
With `Cc1ccc(-n2nnc3c(SCC(=O)Nc4ccc(F)cc4)ncnc32)cc1` [CBK287542] the “% of control remaining” value was 63.0656.
